The results in this text go back to article PMC12820563, “FoxP3 forms a head-to-head dimer in vivo and stabilizes its multimerization on adjacent microsatellites”.

The list shows a part of the results.

The target of the test is T1, MBP-FoxP1dN (Mus musculus, UniProt P58462 326-579).
T1 sequence: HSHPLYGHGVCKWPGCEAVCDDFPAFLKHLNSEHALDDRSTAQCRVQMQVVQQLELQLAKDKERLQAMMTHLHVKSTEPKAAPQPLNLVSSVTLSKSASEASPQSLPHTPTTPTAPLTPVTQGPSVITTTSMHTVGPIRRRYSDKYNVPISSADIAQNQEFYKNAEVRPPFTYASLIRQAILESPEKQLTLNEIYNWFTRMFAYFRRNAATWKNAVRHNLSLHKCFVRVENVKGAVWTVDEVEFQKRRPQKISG
Briefly: PD-seq (MBP pull-down with sequencing); 20 mM Tris-HCl pH 7.5, 100 mM NaCl, 1.5 mM MgCl2, 0.4 uM protein, 0.1 uM dsDNA library, 30 min, room temperature, amylose pull-down; high values mean tight binding. The settings on record: protein: recombinant; tags: His6-MBP; chain copies: 2; dsDNA, one strand shown. The gist of the method:
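Binding is the reads-per-million enrichment of pull-down relative to input, pooled across replicates. For this, 0.4 µM His6-MBP-tagged mouse FoxP3 or FoxP1 fragment lacking the N-terminus, made in E. coli, was incubated with 0.1 µM Klenow-filled double-stranded degenerate DNA library for 30 min at room temperature in Tris pH 7.5 buffer with NaCl and MgCl2. Complexes bound to amylose resin were washed three times before proteinase K released the DNA for PCR barcoding and Illumina sequencing.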
On to “GATGATTGTTCTCCCAGCTGATGAATTGAGTCATTCGAGTAAACAAATTTTCCTAATCTTTCTGTTCAAGCGCCATCTAC”, for which the binding signal is 0.995 RPM ratio (pull-down/input).
The same measure for “GATGATTGTTCTCCCAGCTGATGAATTCGTCCATTCGAGTAAACAAATTTTCCTAATCTTTCTGTTCAAGCGCCATCTAC”: 0.829 RPM ratio (pull-down/input); for “GATGATTGTTCTCCCAGCTGATGAATTGGACCCATCGAGTAAACAAATTTTCCTAATCTTTCTGTTCAAGCGCCATCTAC”: 0.846 RPM ratio (pull-down/input).
As for “GATGATTGTTCTCCCAGCTGATGAATTACGAATGTCGAGTAAACAAATTTTCCTAATCTTTCTGTTCAAGCGCCATCTAC”, the binding signal was 1 RPM ratio (pull-down/input).
For “GATGATTGTTCTCCCAGCTGATGAATTATGTCAGTCGAGTAAACAAATTTTCCTAATCTTTCTGTTCAAGCGCCATCTAC”, the binding signal is 1.04 RPM ratio (pull-down/input).
The same measure for “GATGATTGTTCTCCCAGCTGATGAATTAATCGGTTCGAGTAAACAAATTTTCCTAATCTTTCTGTTCAAGCGCCATCTAC”: 0.972 RPM ratio (pull-down/input); for “GATGATTGTTCTCCCAGCTGATGAATTTCCGACTTCGAGTAAACAAATTTTCCTAATCTTTCTGTTCAAGCGCCATCTAC”: 0.805 RPM ratio (pull-down/input).
The value for “GATGATTGTTCTCCCAGCTGATGAATTTTTTACATCGAGTAAACAAATTTTCCTAATCTTTCTGTTCAAGCGCCATCTAC” was 0.953 RPM ratio (pull-down/input).
The value for “GATGATTGTTCTCCCAGCTGATGAATTAAACCTGTCGAGTAAACAAATTTTCCTAATCTTTCTGTTCAAGCGCCATCTAC” was 0.903 RPM ratio (pull-down/input); that for “GATGATTGTTCTCCCAGCTGATGAATTCAGAGAGTCGAGTAAACAAATTTTCCTAATCTTTCTGTTCAAGCGCCATCTAC” was 0.777 RPM ratio (pull-down/input).
In the case of “GATGATTGTTCTCCCAGCTGATGAATTTCCGCCTTCGAGTAAACAAATTTTCCTAATCTTTCTGTTCAAGCGCCATCTAC”, the binding signal is 0.87 RPM ratio (pull-down/input).
The same measure for “GATGATTGTTCTCCCAGCTGATGAATTAGTTGAGTCGAGTAAACAAATTTTCCTAATCTTTCTGTTCAAGCGCCATCTAC”: 0.85 RPM ratio (pull-down/input); for “GATGATTGTTCTCCCAGCTGATGAATTAAACTACTCGAGTAAACAAATTTTCCTAATCTTTCTGTTCAAGCGCCATCTAC”: 1.01 RPM ratio (pull-down/input).
The value for “GATGATTGTTCTCCCAGCTGATGAATTTAGCTAGTCGAGTAAACAAATTTTCCTAATCTTTCTGTTCAAGCGCCATCTAC” was 0.944 RPM ratio (pull-down/input); that for “GATGATTGTTCTCCCAGCTGATGAATTCAGGAAGTCGAGTAAACAAATTTTCCTAATCTTTCTGTTCAAGCGCCATCTAC” was 0.816 RPM ratio (pull-down/input).
The same measure for “GATGATTGTTCTCCCAGCTGATGAATTAGCGGATTCGAGTAAACAAATTTTCCTAATCTTTCTGTTCAAGCGCCATCTAC”: 0.845 RPM ratio (pull-down/input); for “GATGATTGTTCTCCCAGCTGATGAATTGTGACATTCGAGTAAACAAATTTTCCTAATCTTTCTGTTCAAGCGCCATCTAC”: 1.3 RPM ratio (pull-down/input); for “GATGATTGTTCTCCCAGCTGATGAATTCAATACTTCGAGTAAACAAATTTTCCTAATCTTTCTGTTCAAGCGCCATCTAC”: 0.95 RPM ratio (pull-down/input).
In the case of “GATGATTGTTCTCCCAGCTGATGAATTAAGGGCATCGAGTAAACAAATTTTCCTAATCTTTCTGTTCAAGCGCCATCTAC”, the binding signal was 1.04 RPM ratio (pull-down/input).
The same measure for “GATGATTGTTCTCCCAGCTGATGAATTTAAAAAGTCGAGTAAACAAATTTTCCTAATCTTTCTGTTCAAGCGCCATCTAC”: 0.928 RPM ratio (pull-down/input); for “GATGATTGTTCTCCCAGCTGATGAATTCGCTAAATCGAGTAAACAAATTTTCCTAATCTTTCTGTTCAAGCGCCATCTAC”: 0.979 RPM ratio (pull-down/input).
The same measure for “GATGATTGTTCTCCCAGCTGATGAATTGAATCTCTCGAGTAAACAAATTTTCCTAATCTTTCTGTTCAAGCGCCATCTAC”: 0.83 RPM ratio (pull-down/input).
The same measure for “GATGATTGTTCTCCCAGCTGATGAATTGGTCCCATCGAGTAAACAAATTTTCCTAATCTTTCTGTTCAAGCGCCATCTAC”: 0.976 RPM ratio (pull-down/input); for “GATGATTGTTCTCCCAGCTGATGAATTATGAAAGTCGAGTAAACAAATTTTCCTAATCTTTCTGTTCAAGCGCCATCTAC”: 0.906 RPM ratio (pull-down/input).
In the case of “GATGATTGTTCTCCCAGCTGATGAATTTTTCCCGTCGAGTAAACAAATTTTCCTAATCTTTCTGTTCAAGCGCCATCTAC”, the binding signal was 0.892 RPM ratio (pull-down/input).
Take “GATGATTGTTCTCCCAGCTGATGAATTACGAGGCTCGAGTAAACAAATTTTCCTAATCTTTCTGTTCAAGCGCCATCTAC”: the binding signal was 0.986 RPM ratio (pull-down/input).
Regarding “GATGATTGTTCTCCCAGCTGATGAATTCTTAGCGTCGAGTAAACAAATTTTCCTAATCTTTCTGTTCAAGCGCCATCTAC”, the binding signal is 0.944 RPM ratio (pull-down/input).
Turning to “GATGATTGTTCTCCCAGCTGATGAATTTGACACTTCGAGTAAACAAATTTTCCTAATCTTTCTGTTCAAGCGCCATCTAC”, the binding signal is 0.926 RPM ratio (pull-down/input).
As to “GATGATTGTTCTCCCAGCTGATGAATTTATCAAATCGAGTAAACAAATTTTCCTAATCTTTCTGTTCAAGCGCCATCTAC”, the binding signal is 1.28 RPM ratio (pull-down/input).
In the case of “GATGATTGTTCTCCCAGCTGATGAATTCGATCGCTCGAGTAAACAAATTTTCCTAATCTTTCTGTTCAAGCGCCATCTAC”, the binding signal is 0.768 RPM ratio (pull-down/input).
The same measure for “GATGATTGTTCTCCCAGCTGATGAATTATCGTCTTCGAGTAAACAAATTTTCCTAATCTTTCTGTTCAAGCGCCATCTAC”: 0.967 RPM ratio (pull-down/input).
